{
  "source": "PubChem BioAssay AID485364",
  "about": "(National Center for Advancing Translational Sciences (NCATS), 2010)",
  "note": "Out of some 360,000 compounds screened, about 11,000 (3.1%) were called active. Inconclusive results, whose numbers are uncertain, are shown with a selection of clear calls. The call rests on the fitted dose curve; in most records, active means well fitted inhibition curve with a large enough effect; inconclusive means small, poorly fitted or top-dose-only effect; inactive means no such curve, though single readings can be large or run the other way. Potencies of inconclusive entries are left out as doubtful fits. On the % scale 0 is the no-effect control and ±100 the full control effect; potency means the concentration at half of the fitted maximal effect; tags describe the fitted curve by direction and shape.",
  "data": [
    {"target": "Schistosoma mansoni thioredoxin glutathione reductase (TGR) (UniProt Q962Y6)", "experiment": "qHTS Assay for the Inhibitors of Schistosoma Mansoni Peroxiredoxins; further: nearly all actives have a fitted effect of over 60% in size", "details": "purified TGR, DTNB reduction, TNB absorbance 405 nm; activity change, negative = inhibition: at 114 µM (top of the series) unless noted", "procedure,_shortened": "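First, TGR (20 nM dispensed) and NADPH were mixed with compound. Second, a 15 min room-temperature incubation followed. Third, further NADPH and then DTNB were added to start the reaction. Finally, TNB absorbance was monitored kinetically.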", "values": [
      {"smiles": "O=C(CCn1c(=O)c2cccn2c2ccccc21)Nc1ccc(F)cc1", "Potency": "inactive"},
      {"smiles": "CC(C)OC(=O)c1cc2c(=O)[nH]c(C(Cl)(Cl)Cl)nc2o1", "Potency": "active: 28.2 µM"},
      {"smiles": "Cc1[nH]c2ccc(C(=O)NC3CCC(C)CC3)cc2c1C", "note": "(configuration not stated)", "activity change, negative = inhibition": "inactive: -9.66%"},
      {"smiles": "O=C(N/N=C/c1ccc([N+](=O)[O-])o1)c1cc(-c2ccc(-c3ccccc3)cc2)nc2ccccc12", "Potency": "inconclusive [inhibitor, full curve]"},
      {"smiles": "Cc1cccc(-c2nc(CS(=O)CC(=O)NC3CCCC(C)C3C)c(C)o2)c1", "note": "(configuration not stated)", "Potency": "active: 5.01 µM"},
      {"smiles": "CCCCNC(=S)NNC(=O)c1csc(C)c1", "activity change, negative = inhibition": "inactive: -2.83%"},
      {"smiles": "O=C(OCn1ncc(Cl)c(Cl)c1=O)c1ccccc1Cl", "Potency": "active: 7.08 µM"},
      {"smiles": "COc1ccccc1NC(=S)NCc1ccc(S(N)(=O)=O)cc1", "Potency": "inconclusive [inhibitor, partial curve]"},
      {"smiles": "O=C(Nc1cc(F)ccc1F)c1cc2nc(-c3ccco3)cc(C(F)(F)Cl)n2n1", "Potency": "active: 22.4 µM"},
      {"smiles": "CCc1nnc(NC(=O)CSc2nnc(Cc3cccn3C)n2C)s1", "Potency": "inconclusive [inhibitor, partial curve]"},
      {"smiles": "O=S(=O)(c1ccc(Br)cc1)N1CCN=C1SCc1cccc(F)c1", "Potency": "inconclusive [inhibitor, full curve, poor fit]"},
      {"smiles": "Cc1ccc(C(=O)CSc2ncn[nH]2)cc1", "Potency": "inconclusive [inhibitor, single point]"},
      {"smiles": "Cc1ccc2[nH]c(=O)c(CN(Cc3ccco3)C(=O)N3CCOCC3)cc2c1", "Potency": "inconclusive [inhibitor, partial curve]"},
      {"smiles": "O=C(CNc1cccc(F)c1)N1CCc2ccccc2C1", "activity change, negative = inhibition": "inactive: 13.9%"},
      {"smiles": "c1coc(CN(Cc2ccco2)c2ncnc3c2oc2ccccc23)c1", "Potency": "inconclusive [inhibitor, partial curve]"},
      {"smiles": "Cc1cc(/C=C2/C(=O)NC(=O)N(c3ccc(Br)cc3)C2=O)c(C)n1C", "Potency": "inconclusive [inhibitor, full curve]"},
      {"smiles": "N#CC1(c2ccccc2)CCC(=NNS(=O)(=O)c2ccccc2)CC1", "note": "(configuration not stated)", "Potency": "active: 39.8 µM"},
      {"smiles": "Cc1cc(C(=O)N/N=C/c2ccc(N(C)C)o2)cs1", "Potency": "inconclusive [inhibitor, full curve, poor fit]"},
      {"smiles": "O=S(=O)(c1ccccc1)N1N=C(c2ccc(Br)cc2)CC1c1ccco1", "note": "(configuration not stated)", "Potency": "active: 56.2 µM"},
      {"smiles": "CC(=O)CSc1nsc(SCC(C)=O)c1C#N", "Potency": "inconclusive [inhibitor, partial curve]"},
      {"smiles": "O=C(Nc1cccc(Cl)c1N1CCCC1)c1ccc([N+](=O)[O-])o1", "Potency": "inconclusive [inhibitor, partial curve]"},
      {"smiles": "CCNC(=S)N/N=C/c1ccco1", "Potency": "inconclusive [inhibitor, full curve]"},
      {"smiles": "CC(OC(=O)c1ccc2c(=O)n3c(nc2c1)CCC3)C(N)=O", "note": "(configuration not stated)", "activity change, negative = inhibition": "inactive: -1.98%"},
      {"smiles": "CCOc1ccc(CCNC(=O)CN2C(=O)c3cccnc3Oc3ccc(Cl)cc32)cc1", "Potency": "inactive"},
      {"smiles": "CCc1nc(N2CCN(C(=O)CCl)CC2)c2c3c(sc2n1)CC(C)CC3", "note": "(configuration not stated)", "Potency": "active: 15.8 µM"},
      {"smiles": "O=c1c(C(c2nnnn2C2CCCCC2)N2CCCCC2)coc2ccc(Cl)cc12", "note": "(configuration not stated)", "Potency": "active: 28.2 µM"},
      {"smiles": "CCOc1ccc(NC(=O)Cc2nnc(SCC(=O)N3CCOCC3)n2C)cc1", "Potency": "inconclusive [inhibitor, full curve, poor fit]"},
      {"smiles": "CCOc1ccc(OCC)c(Nc2cc(C)nc3nc(-c4ccco4)nn23)c1", "Potency": "inconclusive [inhibitor, partial curve]"},
      {"smiles": "CC(C)(C)NC(=O)C(c1ccc(O)cc1)N(Cc1ccco1)C(=O)Cn1nnc(-c2cccs2)n1", "note": "(configuration not stated)", "Potency": "active: 17.8 µM"},
      {"smiles": "N#Cc1ncc(Cc2ccccc2)nc1C#N", "Potency": "inconclusive [inhibitor, partial curve]"},
      {"smiles": "CCCCn1c(NC(=O)c2ccc(Br)o2)c(S(=O)(=O)c2ccccc2)c2nc3ccccc3nc21", "Potency": "inconclusive [inhibitor, full curve, poor fit]"},
      {"smiles": "c1cncc(-c2ccc3ncnc(NCc4cccs4)c3c2)c1", "activity change, negative = inhibition": "inactive: 0.68%"},
      {"smiles": "Cc1ccc(-n2c(Cl)c(Cl)nc(Cl)c2=O)cc1", "Potency": "active: 0.794 µM"},
      {"smiles": "CC(=O)Nc1ccc(S(=O)(=O)NNc2ccc([N+](=O)[O-])cc2)cc1", "Potency": "inconclusive [inhibitor, partial curve]"},
      {"smiles": "O=C(CSc1cccc2cccnc12)NCc1ccco1", "Potency": "active: 44.7 µM"},
      {"smiles": "C=C(C)c1cccc(C(C)(C)NC(=O)NCC2CCCO2)c1", "note": "(configuration not stated)", "Potency": "inconclusive [inhibitor, partial curve]"},
      {"smiles": "CSc1nnc(N2C(=O)C(O)=C(C(=O)c3ccc(C)o3)C2c2ccc(C)cc2)s1", "note": "(configuration not stated)", "Potency": "inconclusive [inhibitor, partial curve]"},
      {"smiles": "CCC1=C(OC(=O)N(CC)CC)N2C(=O)OC(=NCC(=O)OC)[C@]2(Cc2ccccc2)[C@H]2C1=CC[C@H]1C(=O)N(c3ccccc3)C(=O)[C@H]12", "Potency": "inconclusive [inhibitor, partial curve]"},
      {"smiles": "O=C(NC(=O)C(F)(F)F)Nc1ccc(S(=O)(=O)Nc2nccs2)cc1", "activity change, negative = inhibition": "inactive: 2.73%"},
      {"smiles": "O=C(Nc1scc(-c2ccccc2)c1C(=O)O)c1ccco1", "Potency": "inconclusive [inhibitor, single point]"},
      {"smiles": "O=C(c1ccc(S(=O)(=O)Cc2cc(F)ccc2F)c([N+](=O)[O-])c1)N1CCCCC1", "Potency": "active: 8.91 µM"},
      {"smiles": "CCCCCCCCOc1ccc(C2OC34CCCCC3C(C#N)(C#N)C2(C#N)C(=N)O4)cc1", "note": "(configuration not stated)", "Potency": "inconclusive [inhibitor, partial curve]"},
      {"smiles": "CCn1c(=O)cc(OCC(=O)NCc2ccco2)c2ccccc21", "Potency": "inconclusive [inhibitor, partial curve]"},
      {"smiles": "Cc1nn(-c2cccc(Cl)c2)c2c1C(c1ccncc1)C(C#N)=C(N)O2", "note": "(configuration not stated)", "Potency": "inconclusive [inhibitor, partial curve]"},
      {"smiles": "COc1ccc(CC(=O)n2[nH]c(=O)ccc2=O)cc1OC", "Potency": "active: 0.562 µM"},
      {"smiles": "COc1ccccc1NC(=O)c1cccc(S(=O)(=O)N2CCN(c3ccccc3)CC2)c1", "activity change, negative = inhibition": "inactive: -2.21%"},
      {"smiles": "CSCc1ccc(C(=O)N2CCCC(Nc3ccc4c(c3)OCCO4)C2)o1", "note": "(configuration not stated)", "Potency": "active: 28.2 µM"},
      {"smiles": "CC(=O)c1ccc(OCc2cc(C(=O)NC(C)Cc3ccccn3)no2)cc1", "note": "(configuration not stated)", "Potency": "inconclusive [inhibitor, single point]"},
      {"smiles": "Cc1ccc(-c2nc(CS(=O)CC(=O)NCc3ccco3)c(C)o2)cc1", "note": "(configuration not stated)", "Potency": "active: 50.1 µM"},
      {"smiles": "CCOc1ccc(S(=O)(=O)N2CCN(Cc3ccccc3)CC2)c2cccnc12", "Potency": "inconclusive [inhibitor, full curve, poor fit]"},
      {"smiles": "Cc1[nH]n(C(C)(C)C)c(=O)c1Sc1ccc(Cl)cc1", "activity change, negative = inhibition": "inactive: 20.2%"},
      {"smiles": "CSCCC(NC(=O)c1ccco1)C(=O)OCC(=O)Nc1ncc(Cl)c(C)c1Cl", "note": "(configuration not stated)", "Potency": "inconclusive [inhibitor, partial curve]"},
      {"smiles": "COc1ccccc1NC(=O)N1CCN(CCc2ccccc2)CC1", "activity change, negative = inhibition": "inactive: -17.2%"},
      {"smiles": "CN(Cc1nc2c(s1)CCCC2)C(=O)CCc1nnc(-c2ccccc2)o1", "Potency": "inconclusive [inhibitor, partial curve]"},
      {"smiles": "Cc1ccccc1C(=O)NC(=S)NC1CC1", "Potency": "inconclusive [inhibitor, partial curve]"},
      {"smiles": "COc1cc(NC(=S)NC2CC2)c(OC)cc1Cl", "Potency": "active: 39.8 µM"},
      {"smiles": "Cc1ccc(CN=c2c([N+](=O)[O-])nn(-c3ccc(Cl)cc3)n2O)cc1", "activity change, negative = inhibition": "inactive: -15.9%"},
      {"smiles": "Cc1cccc(N2CCN(C(=O)/C=C/c3ccco3)CC2)c1C", "Potency": "inconclusive [inhibitor, partial curve]"},
      {"smiles": "COc1ccc(S(=O)(=O)N2CCCCC2)cc1NC(=O)CSc1ncccn1", "activity change, negative = inhibition": "inactive: -5.46%"},
      {"smiles": "CN1C(=O)CC(N2CCC(c3nc4ccccc4[nH]3)CC2)C1=O", "note": "(configuration not stated)", "Potency": "active: 89.1 µM"},
      {"smiles": "CCN(CC(=O)NC(C)(C)C)C(=O)c1ccc2c(c1)S(=O)(=O)c1ccccc1C2=O", "activity change, negative = inhibition": "inactive: -1.62%"},
      {"smiles": "c1ccc(Cn2c(-c3ccco3)nc3nc4ccccc4nc32)cc1", "Potency": "inconclusive [inhibitor, partial curve]"},
      {"smiles": "OCC1(CCOc2ccccc2)CCN(Cc2ccncc2)CC1", "Potency": "inconclusive [inhibitor, partial curve]"},
      {"smiles": "CC1CCC(NC(=O)COC(=O)CNC(=O)c2ccc3ccccc3c2)CC1", "note": "(configuration not stated)", "activity change, negative = inhibition": "inactive: -15.4%"},
      {"smiles": "COC(=O)c1cccc(C23CC4(C2)[C@H](CN(Cc2ccc(C(F)(F)F)cc2)[C@@H]4c2ccccc2)C3c2ccc(C(F)(F)F)cc2)c1", "note": "(some centres not stated)", "Potency": "inconclusive [inhibitor, full curve]"},
      {"smiles": "CC(=O)C1(C)OC(N)=C(C#N)C(c2ccccc2)C1(C#N)C#N", "note": "(configuration not stated)", "Potency": "active: 11.2 µM"},
      {"smiles": "CC(/C=C/c1ccc(N(C)C)cc1)=N\\N=C(/N)SC1CC(=O)N(c2ccc(C(=O)O)cc2)C1=O", "note": "(configuration not stated)", "Potency": "inconclusive [inhibitor, partial curve]"},
      {"smiles": "CC(=O)c1ccc(N2CCN(C(=O)c3noc4c3CSc3ccccc3-4)CC2)cc1", "Potency": "inconclusive [inhibitor, single point]"},
      {"smiles": "COC(=O)c1ccccc1NC(=O)C1CC(c2ccc(F)cc2)=NO1", "note": "(configuration not stated)", "Potency": "inconclusive [inhibitor, single point]"},
      {"smiles": "O=c1c2ccccc2c(-c2n[nH]c(=S)o2)nn1Cc1ccccc1", "Potency": "inconclusive [inhibitor, full curve, poor fit]"},
      {"smiles": "Fc1ccccc1N1CCN(C(c2ccncc2)c2nnnn2C2CCCC2)CC1", "note": "(configuration not stated)", "Potency": "inconclusive [inhibitor, single point]"},
      {"smiles": "C=CCNC(=O)c1ccc(C2SCC(=O)N2Cc2ccco2)cc1", "note": "(configuration not stated)", "Potency": "active: 28.2 µM"}
    ]}
  ]
}
